Source: PubChem BioAssay AID1347120 (National Center for Advancing Translational Sciences (NCATS), 2019)
Among all 390,000 compounds or so, about 930 (0.24%) were called active. The inconclusive results got no clear call from the source; some entries with a clear call stand among them for comparison. Calls come from the whole dose curve; as a rule, active = well fitted activation curve with a large enough effect; inconclusive = small, poorly fitted or top-dose-only effect; inactive = no such curve, though single readings can be large or run the other way. A potency beside an inconclusive call is a rough fit, not a confirmed value.

Assay: qHTS for Suppressors of FUS Proteinopathy: Primary screen using FUS-linked yeast assay; note: nearly all actives have a fitted effect of over 55% in size
Settings: S. cerevisiae FUS-expressing, OD600, 24 h; Potency: growth rescue; series mostly up to 76.6 µM
Procedure, shortened: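 S. cerevisiae expressing FUS from galactose induction served as the toxicity model. Growth after 24hr at 30C, read as absorbance at 600 nm, indicates suppression of toxicity; compounds dosed at several concentrations.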
Potency is the fitted concentration of half-maximal effect; tags give direction and shape of the fitted curve.

| Structure (SMILES) | Potency |
| --- | --- |
| N#Cc1ccccc1OCC(=O)Nc1nc(-c2ccccn2)cs1 | inactive |
| Cc1ccc(C(=O)N2c3nc(-c4ccco4)nn3C3(CCCCC3)[C@@H]3CCCC[C@@H]32)cc1 | inconclusive: 17.8 µM [activator, partial curve, poor fit] |
| C[C@H](NC(=O)c1[nH]cnc1C(=O)Nc1ccc(CNC(=O)OC(C)(C)C)cc1)C(=O)OC(C)(C)C | inconclusive: 20 µM [activator, single point] |
| COc1ccc(-c2nc3ccccn3c2Cl)cc1 | inconclusive: 31.6 µM [activator, partial curve, poor fit] |
| COC/C=C/C1=CC2=CC(=O)C(C)(OC(=O)c3cnc4ccccc4n3)C(=O)C2=CN1Cc1ccccc1 (stereo unspecified) | inconclusive: 35.5 µM [activator, single point] |
| COc1ccc(-c2ccnc3c2c(=O)n(C)c(=O)n3C)cc1OC | inactive |
| O=C(Cn1nnc(-c2ccccc2)n1)N=Nc1c(O)[nH]c2ccccc12 | inactive |
| COc1ccc(OC)c(CNC(=O)CCS(=O)(=O)c2ccc3c(c2)oc(=O)n3C)c1 | inconclusive: 35.5 µM [activator, single point] |
| Cc1c(C(O)CN2CCN(Cc3ccc4c(c3)OCO4)CC2)c2ccccc2n1C (stereo unspecified) | inconclusive: 17.8 µM [activator, partial curve, poor fit] |
| N#Cc1c(-c2ccco2)cc(-c2cccnc2)nc1N | inconclusive: 31.6 µM [activator, single point] |
| Nc1cccc(-c2cn(-c3cc4cc(C#CC5(O)CCCCC5)ccc4oc3=O)nn2)c1 | inconclusive: 50.1 µM [activator, single point] |
| COc1ccc(C(C)=O)cc1CC1(C)C(=O)Nc2ccc(-c3cccc(C(F)(F)F)c3)cc21 (stereo unspecified) | inconclusive: 39.8 µM [activator, partial curve, poor fit] |
| O=C(c1ccc(N2CCCC2)c([N+](=O)[O-])c1)N1CCN(S(=O)(=O)c2ccccc2)CC1 | inconclusive: 22.4 µM [activator, partial curve] |
| COc1cccc([C@@H]2Oc3ccc(OC)cc3C(=O)[C@H]2OC(=O)Nc2cc(OC)c(OC)c(OC)c2)c1 | inconclusive: 22.4 µM [activator, partial curve] |
| COc1ccccc1Cc1c(-c2ccc(C)cc2)nc2c(C)cc(Br)cn12 | inconclusive: 50.1 µM [activator, single point] |
| O=C(Nc1ccccc1Cc1ccccc1)c1ccc2c(c1)SC1=NS(=O)(=O)CCN12 | inconclusive: 5.01 µM [activator, full curve, poor fit] |
